Data as given in PubChem BioAssay AID504332 (National Center for Advancing Translational Sciences (NCATS), 2011).
The campaign covered roughly 350,000 compounds. About 31,000 (8.9%) were called active. Inconclusive results, whose numbers are uncertain, are shown with a selection of clear calls. Calls come from the whole dose curve; as a rule, active = well fitted inhibition curve with a large enough effect; inconclusive = small, poorly fitted or top-dose-only effect; inactive = no such curve, though single readings can be large or run the other way. Potencies beside an inconclusive call are fits to weak or partial responses and may not hold up.

Target: Histone-lysine N-methyltransferase EHMT2 (Homo sapiens) (UniProt Q96KQ7)
Assay: qHTS Assay for Inhibitors of Histone Lysine Methyltransferase G9a; note: nearly all actives have a fitted effect of over 75% in size
Conditions: G9a H3K9 monomethylation, AlphaScreen, 2 h; activity, negative = inhibition: at 59 µM (top of the series) unless noted
Procedure, shortened: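 G9a (20 nM) was preincubated 15 min with compound, then reacted 2 h at room temperature with 500 nM biotin-H3K9 peptide and 20 µM SAM. Monomethyl-H3K9 detected by AlphaScreen using anti-H3K9me1 antibody.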
% is set by controls: 0 for no effect and ±100 for the full control effect; potency is the fitted concentration of half-maximal effect; tags give direction and shape of the fitted curve.

UniProt Q96KQ7, sequence (Q96KQ7 whole entry, looked up): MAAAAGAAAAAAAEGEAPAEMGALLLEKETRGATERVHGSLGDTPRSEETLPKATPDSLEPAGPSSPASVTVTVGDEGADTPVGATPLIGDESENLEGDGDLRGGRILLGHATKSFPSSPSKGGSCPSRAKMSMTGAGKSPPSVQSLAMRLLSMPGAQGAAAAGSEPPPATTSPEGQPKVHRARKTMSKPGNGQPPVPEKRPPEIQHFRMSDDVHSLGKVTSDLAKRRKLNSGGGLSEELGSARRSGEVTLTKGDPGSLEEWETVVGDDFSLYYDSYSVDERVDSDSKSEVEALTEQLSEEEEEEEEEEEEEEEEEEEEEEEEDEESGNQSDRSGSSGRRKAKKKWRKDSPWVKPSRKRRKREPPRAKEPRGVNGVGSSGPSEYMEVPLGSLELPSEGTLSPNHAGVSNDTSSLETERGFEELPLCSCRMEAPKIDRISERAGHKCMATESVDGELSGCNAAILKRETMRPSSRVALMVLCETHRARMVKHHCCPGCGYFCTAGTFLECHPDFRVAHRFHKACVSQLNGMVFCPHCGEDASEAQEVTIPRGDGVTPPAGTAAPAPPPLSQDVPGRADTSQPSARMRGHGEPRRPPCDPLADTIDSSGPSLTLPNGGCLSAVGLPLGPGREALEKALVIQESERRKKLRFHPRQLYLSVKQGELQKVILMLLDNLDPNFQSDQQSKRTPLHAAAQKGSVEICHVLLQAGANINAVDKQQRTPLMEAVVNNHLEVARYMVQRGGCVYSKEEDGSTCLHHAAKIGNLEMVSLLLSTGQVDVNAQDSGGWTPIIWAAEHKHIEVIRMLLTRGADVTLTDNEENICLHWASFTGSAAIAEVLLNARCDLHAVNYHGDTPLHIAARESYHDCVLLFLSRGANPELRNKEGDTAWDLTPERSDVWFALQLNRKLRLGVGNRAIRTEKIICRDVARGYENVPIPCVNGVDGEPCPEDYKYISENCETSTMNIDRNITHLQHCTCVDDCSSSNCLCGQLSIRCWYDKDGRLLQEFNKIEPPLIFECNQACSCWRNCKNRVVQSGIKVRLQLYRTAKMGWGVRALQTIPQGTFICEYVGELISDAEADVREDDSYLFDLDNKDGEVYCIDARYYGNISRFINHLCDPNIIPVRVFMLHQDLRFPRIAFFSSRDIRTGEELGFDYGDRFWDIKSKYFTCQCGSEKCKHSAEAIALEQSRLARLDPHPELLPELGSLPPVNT

| Compound | Potency | activity, negative = inhibition |
| --- | --- | --- |
| COc1cc(C2NC(=O)NC(C)=C2C(=O)OC2CCCCC2)cc(Br)c1O (stereo not given) | inconclusive: 89.1 µM [inhibitor, single point] |  |
| CCOC(=O)c1cnc2ccc(Br)cc2c1NCCN1CCOCC1 | inactive |  |
| O=C(CN1C(=O)c2ccc([N+](=O)[O-])cc2C1=O)NCc1ccc(C(=O)O)cc1 | inconclusive: 89.1 µM [inhibitor, single point] |  |
| O=C(Nc1ccc(C(=O)OCc2cc(=O)n3nc(C4CC4)sc3n2)cc1)c1ccccc1 | inconclusive: 39.8 µM [inhibitor, single point] |  |
| Cc1ccc(CCNC(=O)Cn2c(-c3cccs3)cc3ccccc32)cc1 | inactive |  |
| CCN1CCN(CC(=O)N2N=C(c3cccs3)CC2c2ccc(OC)c(OC)c2)C(=O)C1=O (stereo not given) | inactive |  |
| Cn1cccc1C(=O)NCc1ccc(Cl)cc1 | active: 44.7 µM |  |
| CCN(CC)c1ccc(/C=C(/C#N)C(=O)NCc2ccccc2)o1 | active: 11.2 µM |  |
| O=C(N/N=C/c1ccc(N2CCOCC2)s1)c1ccccc1Cl | inconclusive: 56.2 µM [inhibitor, partial curve, poor fit] |  |
| CCc1ccc(C(=O)COC(=O)c2ccc(-c3nnc(-c4ccccc4)o3)cc2)cc1 | inactive |  |
| Nc1nc(-c2ccccc2)c(N=Nc2ccccc2Cl)s1 | active: 10 µM |  |
| CC(=O)Nc1cccc2c1OCCO2 | inactive |  |
| O=C1CCC(C(=O)OCC(=O)N2N=C3/C(=C/c4ccccc4)CCCC3C2c2ccccc2)N1 (stereo not given) | active: 56.2 µM |  |
| COc1ccc(Cl)cc1S(=O)(=O)Nc1ccc2[nH]c(=O)[nH]c2c1 | inconclusive: 0.316 µM [inhibitor, full curve, poor fit] |  |
| CCc1nn(C(C)C(=O)NC(C)CCc2ccco2)c(=O)c2cc3occc3n12 (stereo not given) |  | inactive: -9.3% [at 12.7 µM] |
| Clc1ccc2c(c1)-n1cc(-c3ccccc3)nc1CO2 | inconclusive: 3.55 µM [inhibitor, partial curve, poor fit] |  |
| Nc1ccc(/C=C/C(=O)c2cccs2)cc1 | inactive |  |
| CCC1CCCCN1CC(C)(C)NS(=O)(=O)c1ccccc1 (stereo not given) | active: 7.08 µM |  |
| COc1ccccc1-c1noc(-c2ccc(NC(C)C)c([N+](=O)[O-])c2)n1 | inactive |  |
| Cc1ccccc1C(=O)OC1OC(=O)C(Cl)=C1Nc1ccc(C(=O)O)cc1 (stereo not given) | inconclusive: 63.1 µM [inhibitor, partial curve, poor fit] |  |
| CN(C)C1(CNC(=S)Nc2ccccc2C(F)(F)F)CCCCC1 | inconclusive: 50.1 µM [inhibitor, partial curve] |  |
| CSCC[C@H](NC(=O)c1ccc(Cl)c([N+](=O)[O-])c1)c1nc2ccccc2[nH]1 | inconclusive: 20 µM [inhibitor, single point] |  |
| O=C(Nc1ccon1)C1CCN(S(=O)(=O)c2cccs2)CC1 | inactive |  |
| O=C(NC1CC2CCCC(C1)N2C(=S)Nc1ccccc1)C1CC1 (stereo not given) | inconclusive: 35.5 µM [inhibitor, single point] |  |

| Compound | Potency | activity, negative = inhibition |
| --- | --- | --- |
| CC(=O)NCCC(Cc1ccccc1)c1ccco1 (stereo not given) | inconclusive: 31.6 µM [inhibitor, single point] |  |
| COC(=O)C1=C(C(=O)OC)SC2(S1)C(C(=O)OC)=C(C(=O)OC)SC1=C2c2cc(C)cc(C)c2NC1(C)C | inconclusive: 22.4 µM [inhibitor, single point] |  |
| COC(=O)c1ccc(NC(C(=O)OC)C(C)C)c([N+](=O)[O-])c1 (stereo not given) | inconclusive: 89.1 µM [inhibitor, single point] |  |
| COc1ccc(C(=O)NCC(=O)N/N=C/c2ccco2)cc1OC | active: 70.8 µM |  |
| COc1ccc(NC2CCCN(C(=O)c3ccc(C(C)=O)s3)C2)cc1 (stereo not given) | active: 50.1 µM |  |
| Cc1[nH]c2ccccc2c1SCC(=O)NC1CCCCC1 | inconclusive: 89.1 µM [inhibitor, partial curve, poor fit] |  |
| COc1cnc(-c2ccccn2)[nH]c1=O | inactive |  |
| Cc1cc(C(=O)COC(=O)CN(C)S(=O)(=O)c2ccc(Cl)cc2)c(C)n1CC1CCCO1 (stereo not given) | inconclusive: 89.1 µM [inhibitor, single point] |  |
| COc1cccc(C2CC(c3ccccc3Cl)n3nc(N)nc3N2)c1 (stereo not given) | inactive |  |
| CC(=O)Nc1ccc(NC(=O)CN(c2cc(Cl)ccc2Cl)S(C)(=O)=O)cc1 | inconclusive: 70.8 µM [inhibitor, partial curve, poor fit] |  |
| CN1CCN(CCC2Oc3cc([N+](=O)[O-])ccc3NC2=O)CC1 (stereo not given) | inconclusive: 89.1 µM [inhibitor, partial curve, poor fit] |  |
| CCOC(=O)c1sc(/N=C/C2=C(O)CC(C)(C)CC2=O)c(C(=O)OCC)c1C | inconclusive: 12.6 µM [inhibitor, partial curve, poor fit] |  |
| CCc1ccc(C2c3[nH]c4ccccc4c3CCN2C(=O)CNC(N)=O)cc1 (stereo not given) | inconclusive: 56.2 µM [inhibitor, partial curve, poor fit] |  |
| Cc1ccc(SC(C)C(=O)Nc2ncn[nH]2)cc1 (stereo not given) |  | inconclusive: -102% [inhibitor] |
| O=S1(=O)C=C(Sc2nnc(-c3ccccc3)o2)c2ccccc21 | inactive |  |
| Cc1cccc2nc(CSc3nnc(N)s3)cn12 | active: 31.6 µM |  |
| CC(C)(C)c1ccc(C(=O)NCC(=O)OCC(=O)Nc2ccccc2[N+](=O)[O-])cc1 | inconclusive: 20 µM [inhibitor, single point] |  |
| CN1CCN(C(CNS(=O)(=O)c2cccs2)c2cccnc2)CC1 (stereo not given) | inconclusive: 89.1 µM [inhibitor, partial curve, poor fit] |  |
| CN(C(=O)COC(=O)C1CSC2(C)CCC(=O)N12)c1ccccc1 (stereo not given) | inconclusive: 89.1 µM [inhibitor, partial curve, poor fit] |  |
| Cc1ccc(NC(=O)C(C)Sc2nnc(C)n2C)cc1 (stereo not given) |  | inactive: -21.5% [at 0.501 µM] |
| O=C(O)c1ccc(Cn2c(=S)[nH]c3cc(Cl)ccc3c2=O)cc1 | active: 39.8 µM |  |
| COc1ccc(NC(=O)CN(C)C(=O)/C=C/c2cn(-c3ccccc3)nc2-c2ccc(C)cc2)cc1 | inconclusive: 89.1 µM [inhibitor, single point] |  |
| CCOCC(O)COc1ccc(NC(=O)CC[S+](C)C)cc1 (stereo not given) |  | inactive: -8.01% [at 12.7 µM] |
| O=C(CCN1CCOCC1)c1ccc(Cl)cc1 | active: 11.2 µM |  |

| Compound | Potency | activity, negative = inhibition |
| --- | --- | --- |
| O=C(c1cc(-c2ccc(O)cc2)on1)N1CCN(c2ccccc2)CC1 | inactive |  |
| Cc1cccnc1NC(=S)Nc1ccc(F)cc1F | active: 50.1 µM |  |
| Cn1c(=O)n(CCCc2ccccc2)c(=O)c2c1nc1n2CCN1c1ccc(F)cc1 | inconclusive: 8.91 µM [inhibitor, partial curve] |  |
| O=C(CN1CCC(O)CC1)N1c2ccccc2C=Cc2ccccc21 | inconclusive: 79.4 µM [inhibitor, partial curve, poor fit] |  |
| CCOC(=O)Nc1sc(C(=O)N(CC)CC)c(C)c1C(=O)OCC |  | inconclusive: -94.8% [inhibitor] |
| COc1cc(OC)c(N(C)C(=O)c2sc3nc4n(c(=O)c3c2C)CCCC4)cc1Cl | inconclusive: 11.2 µM [inhibitor, partial curve] |  |
| CNC(C)c1ccc(S(N)(=O)=O)cc1 (stereo not given) | inconclusive: 39.8 µM [inhibitor, partial curve, poor fit] |  |
| CN1CCC(N(C)C(=S)NCCc2ccccc2)CC1 | inconclusive: 39.8 µM [inhibitor, full curve] |  |
| O=C(CSCc1cnn(-c2ccccc2)c1-n1cccc1)NCc1cccnc1 | inconclusive: 2.82 µM [inhibitor, full curve] |  |
| CCS(=O)(=O)N1N=C(c2ccccc2)CC1c1ccc2nccnc2c1 (stereo not given) | inconclusive: 28.2 µM [inhibitor, partial curve, poor fit] |  |
| Cc1ccc(-c2csc3ncnc(N4CCc5ccccc5C4)c23)cc1 | inconclusive: 79.4 µM [inhibitor, single point] |  |
| O=C(COc1ccccc1)NNC(=O)c1cc2ccccc2o1 | inconclusive: 89.1 µM [inhibitor, single point] |  |
| Cc1ccc(S(=O)(=O)N2CCN(C(=O)CSCc3ccc(C(C)C)cc3)CC2)cc1 | inconclusive: 7.08 µM [inhibitor, single point] |  |
| COc1ccc(NC(=O)COC(=O)C2CCC(C(C)(C)C)CC2)c([N+](=O)[O-])c1 (stereo not given) | inconclusive: 39.8 µM [inhibitor, single point] |  |
| O=C(Cn1nc(-c2ccc(Cl)cc2)ccc1=O)N1CCN(c2ccccc2)CC1 |  | inconclusive: -64.7% [inhibitor] [at 0.501 µM] |
| Cc1ccc(CN2CCSc3ccc(C(=O)NCC4CCCO4)cc32)cc1 (stereo not given) | inconclusive: 89.1 µM [inhibitor, single point] |  |
| CCCN1CCN(S(=O)(=O)c2ccc3c(c2)CCC(=O)N3)CC1 |  | inactive: 9.86% [at 12.7 µM] |
| Cc1cc2c(ncn2Cc2ccccc2)c(NS(C)(=O)=O)c1C | inconclusive: 0.447 µM [inhibitor, full curve, poor fit] |  |
| O=C(CSc1ccc2c(c1)OCCO2)Nc1cccnc1 | inconclusive: 79.4 µM [inhibitor, single point] |  |
| COC(=O)CCSCC(=O)Nc1nnc(C)s1 | inconclusive: 50.1 µM [inhibitor, partial curve] |  |
| Cc1nc(N2CCN(c3ccccc3)CC2)c2c3c(sc2n1)CCC3 | inconclusive: 39.8 µM [inhibitor, partial curve] |  |
| O=C(COc1ccc(F)cc1)Nc1cc(Cl)ccc1-n1cncn1 | active: 56.2 µM |  |
